In PMC7856678 (Bioorganic & medicinal chemistry, 2021):

Legend:
[1] = Cytotoxicity; type: cell-based; conditions: dog, CD4-negative Cf2Th-CCR5 cells
[2] = tested on: CD4-dependent HIV-1ADA in CD4-negative Cf2Th-CCR5 cells; conditions: cited from earlier work

Compound | CC50 at 48 h [1] [µM] | HIV-1 infection in CD4−-CCR5+ cells (entry agonist property) [2]
NC[C@H](NC(=O)c1ccc(-c2ccc(C(F)(F)F)cc2F)[nH]1)c1nc(CCO)cs1 [Compound 13, N-(2-Amino-1-(4-(2-hydroxyethyl)thiazol-2-yl)ethyl)-5-(2-fluoro-4-(trifluoromethyl)phenyl)-1H-pyrrole-2-carboxamide] | 31.2 ± 1.4 | –
NBD-556 | – | enhance HIV-1 infection
